Reference: paper PMC4336329 (PLoS ONE, 2015)
Hit rate of the full screen: of about 310,000 compounds, about 14,000 (4.5%) showed an effect of 50% or more. Effects have a minus sign here. The list shows a part of the results.

The molecules below were run against human ether-à-go-go-related gene (hERG) potassium channel (human, UniProt Q12809) (assay: primary screen, population patch clamp on CHO cells stably expressing hERG).
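Also: peak tail current of the secondary pulse compared with the same well before compound.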

human ether-à-go-go-related gene (hERG) potassium channel, sequence (Q12809 whole entry, looked up): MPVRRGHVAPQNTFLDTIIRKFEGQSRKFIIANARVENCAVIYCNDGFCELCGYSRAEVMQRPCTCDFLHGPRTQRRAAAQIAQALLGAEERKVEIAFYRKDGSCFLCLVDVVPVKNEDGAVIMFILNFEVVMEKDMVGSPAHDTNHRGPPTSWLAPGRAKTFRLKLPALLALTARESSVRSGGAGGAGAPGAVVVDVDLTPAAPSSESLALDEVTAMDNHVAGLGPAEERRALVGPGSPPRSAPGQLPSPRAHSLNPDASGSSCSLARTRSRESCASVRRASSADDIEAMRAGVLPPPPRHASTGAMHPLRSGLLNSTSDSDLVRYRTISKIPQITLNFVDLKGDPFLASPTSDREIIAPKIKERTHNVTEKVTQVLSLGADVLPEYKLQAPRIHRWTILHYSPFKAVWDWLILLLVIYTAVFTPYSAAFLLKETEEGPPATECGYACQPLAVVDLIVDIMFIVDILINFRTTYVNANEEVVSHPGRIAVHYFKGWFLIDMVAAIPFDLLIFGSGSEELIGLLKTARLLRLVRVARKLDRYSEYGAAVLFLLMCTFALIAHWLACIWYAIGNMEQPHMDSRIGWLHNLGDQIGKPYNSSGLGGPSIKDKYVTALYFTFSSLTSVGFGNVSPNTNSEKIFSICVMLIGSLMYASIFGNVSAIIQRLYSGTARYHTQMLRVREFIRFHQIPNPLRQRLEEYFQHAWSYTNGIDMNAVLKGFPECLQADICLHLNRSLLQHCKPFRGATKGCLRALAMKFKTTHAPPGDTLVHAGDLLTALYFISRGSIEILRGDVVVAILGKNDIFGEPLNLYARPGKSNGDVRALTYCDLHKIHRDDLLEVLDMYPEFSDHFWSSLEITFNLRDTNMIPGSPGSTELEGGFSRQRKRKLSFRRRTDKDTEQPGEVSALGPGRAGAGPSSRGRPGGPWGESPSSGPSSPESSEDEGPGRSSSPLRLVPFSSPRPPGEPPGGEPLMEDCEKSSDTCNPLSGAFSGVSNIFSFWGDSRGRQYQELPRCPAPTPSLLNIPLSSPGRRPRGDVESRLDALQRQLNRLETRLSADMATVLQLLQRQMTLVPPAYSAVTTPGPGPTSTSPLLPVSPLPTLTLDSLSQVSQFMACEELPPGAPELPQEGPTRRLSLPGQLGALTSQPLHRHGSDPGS

Going from `CCc1ccc(N2CC(C(=O)Nc3ccccc3F)CC2=O)cc1` (centres unmarked) to `O=C(NCc1ccco1)C1CC(=O)N(c2ccc(Cl)cc2)C1` (centres unmarked), the “hERG current change (%, negative = inhibition) at 10uM” value rises from -13% to -6.16%.

First: O=C(Nc1ccccc1)c1cc(-c2ccccc2Cl)no1
Second: O=C(Nc1c(-c2ccccc2)nc2ccccn12)c1ccco1
The “hERG current change (%, negative = inhibition) at 10uM” value of the first is higher: -4.91% for the first, -7.68% for the second.

First: O=C(CN1C(=O)NC(c2ccccc2)(c2ccccc2)C1=O)NC1CCCC1
Second: COc1ccccc1N1CCN(C(=O)c2cn(Cc3ccccc3)nc2-c2cccnc2)CC1
The “hERG current change (%, negative = inhibition) at 10uM” value of the first is higher: 4.95% for the first, -8.12% for the second.

Going from `O=C(C1CC(=O)N(c2ccc(Cl)cc2)C1)N1CCN(Cc2ccc3c(c2)OCO3)CC1` (centres unmarked) to `N#CCOC(=O)C1CCN(S(=O)(=O)c2ccc3c(c2)OCCO3)CC1`, the “hERG current change (%, negative = inhibition) at 10uM” value rises from -67.7% to 5.72%.

First: COc1ccccc1N=Nc1ccc(O)c2ncccc12
Second: COc1cc(/C=N/Nc2ccccc2C(F)(F)F)ccc1O
The “hERG current change (%, negative = inhibition) at 10uM” value of the first is higher: 24.3% for the first, 11.4% for the second.

Going from `Cc1cc(C)[n+](C)n1CC(O)Cn1c2ccccc2c2ccccc21.[I-]` (centres unmarked) to `Brc1ccccc1Cn1c(-c2cscn2)nc2ccccc21`, the “hERG current change (%, negative = inhibition) at 10uM” value falls from 2.06% to 1.04%.

First: CCCCn1c(CCC(=O)O)ccc1-c1cccs1
Second: Cc1ccc(CNC(=O)CCCCn2c(=O)[nH]c3ccsc3c2=O)cc1
The “hERG current change (%, negative = inhibition) at 10uM” value of the first is higher: 12.9% for the first, 12.4% for the second.

Going from `COc1ccc(OC)c(NC(=O)CSc2nnc(CNC(=O)c3cc(OC)c(OC)c(OC)c3)o2)c1` to `COc1ccc(-c2nnc(OC)c3ccccc23)cc1`, the “hERG current change (%, negative = inhibition) at 10uM” value falls from 5.46% to -7.99%.

Compared with `COc1ccc(-c2noc(CCC(=O)NCCc3ccccc3)n2)cc1`, `COc1ccc(Cn2c(-c3ccccc3)nc3c(c(=O)c4ccccc4n3C)c2=O)cc1` is lower in “hERG current change (%, negative = inhibition) at 10uM” value: 20.9% for the first, -10.6% for the second.

Compared with `COc1ccc(C2/C(=C(/O)c3ccc(C)cc3)C(=O)C(=O)N2CCCN2CCOCC2)cc1` (centres unmarked), `COc1ccc(C(=O)NCC(=O)N2CCN(C(=O)c3ccco3)CC2)cc1` is lower in “hERG current change (%, negative = inhibition) at 10uM” value: 34% for the first, -13.7% for the second.

First: CCc1nc(Nc2ccc(F)cc2)c2oc3ccccc3c2n1.Cl
Second: O=C(NCc1ccc(F)cc1)c1cccnc1C(=O)O
The “hERG current change (%, negative = inhibition) at 10uM” value of the first is lower: 10.3% for the first, 13.5% for the second.

Compared with `CC(=O)N1c2ccc(S(=O)(=O)NCCC(=O)Nc3ccc(F)cc3)cc2CC1C` (centres unmarked), `CC(=O)N1CCc2cc(S(=O)(=O)NCCCN3CCC(C)CC3)ccc21` is higher in “hERG current change (%, negative = inhibition) at 10uM” value: 1.93% for the first, 26.9% for the second.

Going from `O=C(CCc1c[nH]c2ccccc12)NCC1CCCO1` (centres unmarked) to `CC1CCCCN1C(=O)C(=O)c1cn(CC(=O)N2CCCC2)c2ccccc12` (centres unmarked), the “hERG current change (%, negative = inhibition) at 10uM” value rises from 2.92% to 5.67%.

Going from `O=C(Nc1ccc(Oc2ccc3c(c2)C(=O)N(c2ccc(O)cc2)C3=O)cc1)c1cccs1` to `COc1ccc(N2CCN(C(c3ccco3)c3sc4nc(C)nn4c3O)CC2)cc1` (centres unmarked), the “hERG current change (%, negative = inhibition) at 10uM” value falls from 5.14% to -2.41%.

Compared with `COc1ccc(/C=N/NC(=O)C2(C)NC(C)(C)Cc3ccccc32)cc1` (centres unmarked), `Cc1ccc(-c2ccc(SCC(=O)N3CCc4ccccc43)nn2)cc1` is lower in “hERG current change (%, negative = inhibition) at 10uM” value: 1.36% for the first, -3.57% for the second.

Going from `COC(=O)C1=C(CSCc2ccco2)NC(=O)NC1c1cc(C)ccc1C` (centres unmarked) to `COc1cc(C2NC(=O)NC(c3ccccc3)=C2C(C)=O)c(Cl)cc1OCC(=O)O` (centres unmarked), the “hERG current change (%, negative = inhibition) at 10uM” value rises from -27.4% to 18.1%.

Going from `O=C(O)c1cccc(OCc2ccccc2Cl)c1` to `O=C(COC(=O)c1ccncc1)c1ccc(Cl)c(Cl)c1`, the “hERG current change (%, negative = inhibition) at 10uM” value rises from -8.42% to 7.29%.

Compared with `Cn1c(O)c(/C=C2\C=NN=C2c2ccccc2)sc1=S`, `CCS(=O)(=O)C1=NN2C(=N)/C(=C\c3ccc(OC(=O)c4ccco4)c(OC)c3)C(=O)N=C2S1` is lower in “hERG current change (%, negative = inhibition) at 10uM” value: 0.793% for the first, -2.22% for the second.

Compared with `CCOC(=O)N1CCC(NC(=O)C2CCN(C(=O)N3CC(C)Oc4ccccc43)CC2)CC1` (centres unmarked), `O=C(c1cccs1)N1CCCC(c2nc3c(nnn3Cc3ccccc3Cl)c(=O)[nH]2)C1` (centres unmarked) is lower in “hERG current change (%, negative = inhibition) at 10uM” value: -2.01% for the first, -25.5% for the second.

Compared with `Cc1nc2ccc(NS(=O)(=O)c3c(C)c(C)cc(C)c3C)cc2s1`, `CCOC(=O)C1=NN(C(C)=O)C2(CC(=O)N(c3cc(C)cc(C)c3)C2=O)C1` (centres unmarked) is lower in “hERG current change (%, negative = inhibition) at 10uM” value: 9.52% for the first, -0.489% for the second.

Going from `Cl.O=C(O)c1ccc2nc(CO)[nH]c2c1` to `O=C(NC1CC1)c1ccc2snnc2c1`, the “hERG current change (%, negative = inhibition) at 10uM” value falls from 11.2% to 10%.

Compared with `Cc1cc(C)cc(NC(=O)CSCc2cnn(-c3ccccc3)c2-n2cccc2)c1`, `Br.COc1ncnc2c1NC1=C(S2)C(=NCCC(=O)O)CC(C)(C)C1` is lower in “hERG current change (%, negative = inhibition) at 10uM” value: 18.3% for the first, 14.6% for the second.
